In paper PMC4336329 (PLoS ONE, 2015):
Among all 310,000 compounds or so, about 14,000 (4.5%) showed an effect of 50% or more. Effects have a minus sign here. Some of the results follow.

What follows are molecules tested against human ether-à-go-go-related gene (hERG) potassium channel (human, UniProt Q12809) (assay: primary screen, population patch clamp on CHO cells stably expressing hERG).
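Further: peak tail current of the secondary pulse compared with the same well before compound.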

Sequence of human ether-à-go-go-related gene (hERG) potassium channel (Q12809 whole entry, looked up): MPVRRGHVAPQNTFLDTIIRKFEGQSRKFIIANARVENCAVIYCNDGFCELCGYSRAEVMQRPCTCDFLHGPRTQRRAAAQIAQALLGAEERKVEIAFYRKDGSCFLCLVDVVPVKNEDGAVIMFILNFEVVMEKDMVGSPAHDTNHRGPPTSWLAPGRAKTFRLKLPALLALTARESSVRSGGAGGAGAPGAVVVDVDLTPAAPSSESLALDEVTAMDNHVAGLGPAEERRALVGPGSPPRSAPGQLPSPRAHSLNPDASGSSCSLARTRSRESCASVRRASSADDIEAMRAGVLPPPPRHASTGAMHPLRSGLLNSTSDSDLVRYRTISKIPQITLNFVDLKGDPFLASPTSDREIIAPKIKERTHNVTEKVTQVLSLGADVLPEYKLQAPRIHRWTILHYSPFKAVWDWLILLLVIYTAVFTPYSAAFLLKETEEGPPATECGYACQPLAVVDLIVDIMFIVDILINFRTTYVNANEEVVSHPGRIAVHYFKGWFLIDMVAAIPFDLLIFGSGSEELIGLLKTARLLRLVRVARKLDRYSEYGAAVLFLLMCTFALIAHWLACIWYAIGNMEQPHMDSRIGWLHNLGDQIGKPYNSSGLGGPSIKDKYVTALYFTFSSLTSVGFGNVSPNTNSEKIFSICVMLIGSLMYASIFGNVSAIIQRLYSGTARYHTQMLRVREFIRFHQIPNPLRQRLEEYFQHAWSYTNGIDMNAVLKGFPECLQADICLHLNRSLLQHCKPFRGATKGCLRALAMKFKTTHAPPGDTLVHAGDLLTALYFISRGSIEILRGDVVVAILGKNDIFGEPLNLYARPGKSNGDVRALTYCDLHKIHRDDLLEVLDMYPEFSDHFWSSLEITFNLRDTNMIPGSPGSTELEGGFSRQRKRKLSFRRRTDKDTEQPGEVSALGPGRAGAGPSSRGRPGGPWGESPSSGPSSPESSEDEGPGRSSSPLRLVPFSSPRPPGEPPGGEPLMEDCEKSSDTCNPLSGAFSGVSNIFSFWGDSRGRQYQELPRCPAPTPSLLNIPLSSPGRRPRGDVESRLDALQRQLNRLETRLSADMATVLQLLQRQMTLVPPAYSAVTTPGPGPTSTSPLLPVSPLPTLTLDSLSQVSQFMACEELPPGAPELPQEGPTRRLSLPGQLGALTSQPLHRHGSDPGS

Q: With `CC1=C(C(=O)Nc2ccccc2)C(c2ccc(N(C)C)cc2)NC(=O)N1` (centres unmarked) as the molecule, how does the “hERG current change (%, negative = inhibition) at 10uM” value read?
A: 6.98%

Q: With `CC1=C(C(=O)N2CCCC(C(=O)c3cccc(C(F)(F)F)c3)C2)OCCO1` (centres unmarked) as the molecule, how does the “hERG current change (%, negative = inhibition) at 10uM” value read?
A: 2.26%

Q: `O=C(Nc1c(C(=O)N2CCOCC2)cnn1-c1ccccc1)c1ccccc1F` was tested. Which “hERG current change (%, negative = inhibition) at 10uM” value did it give?
A: 14.4%

Q: `CS(=O)(=O)N1CCN(C(=O)Cc2ccc(Br)cc2)CC1` was tested. Which “hERG current change (%, negative = inhibition) at 10uM” value did it give?
A: -1.44%

Q: Which “hERG current change (%, negative = inhibition) at 10uM” value does the source give for `Cc1ccc(N2CC(c3nc4ccccc4n3C)CC2=O)cc1` (centres unmarked) here?
A: -21.5%

Q: Which “hERG current change (%, negative = inhibition) at 10uM” value does the source give for `COc1cc(C)c(NC(=O)c2cc(C3CC3)nc3c2cnn3C(C)C)cc1OC` here?
A: -27.8%

Q: For `CCOc1ccc2nc(NC(=O)CS(=O)(=O)c3ccc(C)cc3)sc2c1`, which “hERG current change (%, negative = inhibition) at 10uM” value is on record?
A: -1.81%

Q: For `Cc1cccc(NC(=O)COC(=O)c2cccc(S(=O)(=O)N3CCCCCC3)c2)c1`, which “hERG current change (%, negative = inhibition) at 10uM” value is on record?
A: -3.72%

Q: With `O=C(COC(=O)[C@H](Cc1ccccc1)NC(=O)c1cccs1)Nc1cc(F)ccc1F` as the molecule, how does the “hERG current change (%, negative = inhibition) at 10uM” value read?
A: 1.18%

Q: Which “hERG current change (%, negative = inhibition) at 10uM” value does the source give for `CC(=O)Nc1ccc(Oc2ccc(-c3noc(C)n3)cc2)cc1` here?
A: -7.05%

Q: How did the “hERG current change (%, negative = inhibition) at 10uM” value turn out when `COc1cc(C(=O)NC(=S)Nc2ccc3[nH]c(=O)[nH]c3c2)cc(OC)c1OC` was run?
A: 11.4%

Q: With `CCS(=O)(=O)c1nc(S(=O)(=O)c2ccc(Cl)cc2)c(N2CCC(O)CC2)s1` as the molecule, how does the “hERG current change (%, negative = inhibition) at 10uM” value read?
A: -17.3%

Q: `CCCCCCCCC(=O)N/N=C(\C)c1cccnc1` was tested. Which “hERG current change (%, negative = inhibition) at 10uM” value did it give?
A: -4.59%

Q: Which “hERG current change (%, negative = inhibition) at 10uM” value does the source give for `CCn1c(Cc2c(C)[nH]c3ccccc23)nnc1SCC(N)=O` here?
A: 13.4%

Q: How did the “hERG current change (%, negative = inhibition) at 10uM” value turn out when `CCCC(=O)N1CCN(c2ccc([N+](=O)[O-])cc2Cl)CC1` was run?
A: -52.2%

Q: For `Cc1ccc(S(=O)(=O)Cc2cccc(C(=O)N3CCOCC3)c2)cc1`, which “hERG current change (%, negative = inhibition) at 10uM” value is on record?
A: 5.76%

Q: How did the “hERG current change (%, negative = inhibition) at 10uM” value turn out when `O=C(Cc1ccccc1)NC1c2ccccc2-c2ccccc21` was run?
A: -2.8%

Q: `CCOC(=O)Cc1csc(NC(=O)CCN2C(=O)c3ccccc3C2=O)n1` was tested. Which “hERG current change (%, negative = inhibition) at 10uM” value did it give?
A: -13.1%

Q: How did the “hERG current change (%, negative = inhibition) at 10uM” value turn out when `C/C(=N\NC(=O)c1ccc(F)cc1)c1ccc(NC(=O)Cc2ccccc2)cc1` was run?
A: -16.9%

Q: Which “hERG current change (%, negative = inhibition) at 10uM” value does the source give for `CC(C)C(c1nnnn1CCc1ccccc1)N1CCC(C(N)=O)CC1` (centres unmarked) here?
A: 3.58%

Q: With `O=C(CN1C(=O)c2ccccc2C1=O)NC1CCCCCC1` as the molecule, how does the “hERG current change (%, negative = inhibition) at 10uM” value read?
A: 20.4%

Q: `COc1ccc(-c2ccc(C#N)c(OC)n2)cc1` was tested. Which “hERG current change (%, negative = inhibition) at 10uM” value did it give?
A: 14.4%

Q: `COc1ccccc1C(c1nnnn1C(C)(C)C)N1CCN(Cc2ccccc2)CC1.Cl` (centres unmarked) was tested. Which “hERG current change (%, negative = inhibition) at 10uM” value did it give?
A: -30.4%

Q: For `Cc1cc(=O)oc(C)c1C(=O)NCc1ccccn1`, which “hERG current change (%, negative = inhibition) at 10uM” value is on record?
A: 5.7%

Q: For `COc1ccc(C(=O)N(c2ccc(OC)cc2)S(=O)(=O)c2cccs2)cc1`, which “hERG current change (%, negative = inhibition) at 10uM” value is on record?
A: 2.98%

Q: `NC(=O)c1cc(Br)cc(C2CCCCC2)c1O` was tested. Which “hERG current change (%, negative = inhibition) at 10uM” value did it give?
A: 10.1%

Q: Which “hERG current change (%, negative = inhibition) at 10uM” value does the source give for `COc1ccc(C2=[N+]([O-])C(C)(C)C(c3ccccc3)=N2)cc1` here?
A: -14.8%

Q: For `Cc1ccccc1C(=O)NC(=S)Nc1sc2c(c1C#N)CCCC2`, which “hERG current change (%, negative = inhibition) at 10uM” value is on record?
A: -14.4%

Q: Which “hERG current change (%, negative = inhibition) at 10uM” value does the source give for `COc1ccc(NC(=S)N(CCCN2CCOCC2)C(C)c2cc3cccc(OC)c3o2)cc1` (centres unmarked) here?
A: -35.5%

Q: How did the “hERG current change (%, negative = inhibition) at 10uM” value turn out when `Cc1ccc(C(=O)COc2ccccc2N2C(=O)c3ccccc3C2=O)cc1` was run?
A: 1.98%

Q: Which “hERG current change (%, negative = inhibition) at 10uM” value does the source give for `CN(C)/C=C/C(=O)c1ccc([N+](=O)[O-])c(CS(=O)(=O)c2ccc(Cl)cc2)c1` here?
A: -48.7%

Q: With `CC1CCCC(NC(=O)c2ccc3c(c2)OCO3)C1C` (centres unmarked) as the molecule, how does the “hERG current change (%, negative = inhibition) at 10uM” value read?
A: -2.75%

Q: How did the “hERG current change (%, negative = inhibition) at 10uM” value turn out when `COc1cc(C(=O)N2CCC(NC(=O)C(Cc3ccccc3)NC(C)=O)CC2)cc(OC)c1OC` (centres unmarked) was run?
A: -9.2%

Q: `c1cncc(Cc2cc3ccccc3[nH]2)c1` was tested. Which “hERG current change (%, negative = inhibition) at 10uM” value did it give?
A: -3.91%

Q: For `COc1cccc(C(=O)Nc2ccncc2)c1`, which “hERG current change (%, negative = inhibition) at 10uM” value is on record?
A: 6.81%

Q: For `O=C(CN1CCN(Cc2ccccc2)CC1)NC(=O)NC1CCCCC1`, which “hERG current change (%, negative = inhibition) at 10uM” value is on record?
A: -46.3%

Q: How did the “hERG current change (%, negative = inhibition) at 10uM” value turn out when `COC(=O)c1cccc(NC(=O)Cn2cnc3ccccc3c2=O)c1` was run?
A: 13.4%

Q: `NC(=O)C1CCN(C(=O)CC2(CC(=O)O)CCCC2)CC1` was tested. Which “hERG current change (%, negative = inhibition) at 10uM” value did it give?
A: 23.5%

Q: With `CCC(=O)NC(c1ccc(C)cc1)c1ccc2cccnc2c1O` (centres unmarked) as the molecule, how does the “hERG current change (%, negative = inhibition) at 10uM” value read?
A: 9.79%

Q: How did the “hERG current change (%, negative = inhibition) at 10uM” value turn out when `COc1ccccc1OCC(=O)NCCSCc1ccccc1Cl` was run?
A: -22.6%

Q: `CCOC(=O)c1c(NC(=O)CSc2cccc[n+]2[O-])sc(C(=O)Nc2ccccc2)c1C` was tested. Which “hERG current change (%, negative = inhibition) at 10uM” value did it give?
A: -30.1%

Q: Which “hERG current change (%, negative = inhibition) at 10uM” value does the source give for `CCS(=O)(=O)n1nc(-c2cccnc2)nc1NCc1ccc(F)cc1` here?
A: -26.4%

Q: `Cc1ccc(-c2nnc(SCc3nc4ccccc4[nH]3)n2Cc2ccco2)cc1` was tested. Which “hERG current change (%, negative = inhibition) at 10uM” value did it give?
A: -4.93%

Q: `Cc1ccc(N2CC(C(=O)Nc3nc4ccc(S(C)(=O)=O)cc4s3)CC2=O)cc1` (centres unmarked) was tested. Which “hERG current change (%, negative = inhibition) at 10uM” value did it give?
A: -23.9%

Q: With `N#CC(C#N)=Cc1ccc(-c2ccccc2F)o1` as the molecule, how does the “hERG current change (%, negative = inhibition) at 10uM” value read?
A: 7.76%

Q: With `Cc1cc(-c2ccccc2)nc(SCC(=O)N2CCCC2)n1` as the molecule, how does the “hERG current change (%, negative = inhibition) at 10uM” value read?
A: -2.19%

Q: For `S=c1[nH]nc(C2CCCCC2)n1/N=C/c1ccccc1Br`, which “hERG current change (%, negative = inhibition) at 10uM” value is on record?
A: 16.2%

Q: `COC(=O)c1c(NC(C)=O)sc2c1CCN(Cc1ccccc1)C2.Cl` was tested. Which “hERG current change (%, negative = inhibition) at 10uM” value did it give?
A: -9.29%

Q: `COc1ccccc1NS(=O)(=O)c1cc(C(=O)NCC(c2ccc(F)cc2)N2CCOCC2)ccc1C` (centres unmarked) was tested. Which “hERG current change (%, negative = inhibition) at 10uM” value did it give?
A: -19.1%

Q: `O=C(NCCCO)c1cc2c([nH]c3ccccc32)c(-c2ccccc2)n1` was tested. Which “hERG current change (%, negative = inhibition) at 10uM” value did it give?
A: -33.8%

Q: Which “hERG current change (%, negative = inhibition) at 10uM” value does the source give for `Cc1nn2c(N)c(C#N)cnc2c1-c1ccc(Cl)cc1` here?
A: -0.156%

Q: For `O=[N+]([O-])c1cccc(/C=N/Nc2nc(N3CCOCC3)nc(N3CCOCC3)n2)c1`, which “hERG current change (%, negative = inhibition) at 10uM” value is on record?
A: 5.21%

Q: `CCCOc1ccc(N2C(=O)C3ON(c4ccccc4)C(c4ccc(O)c(OC)c4)C3C2=O)cc1` (centres unmarked) was tested. Which “hERG current change (%, negative = inhibition) at 10uM” value did it give?
A: -6.84%

Q: For `COc1ccc(NC(=O)NC2CCCCCCC2)c(OC)c1`, which “hERG current change (%, negative = inhibition) at 10uM” value is on record?
A: 8.12%

Q: How did the “hERG current change (%, negative = inhibition) at 10uM” value turn out when `O=c1[nH][nH]c(-c2ccccc2)c1C=Nc1ccc(C(F)(F)F)cc1` was run?
A: 12%

Q: `O=C(NCC1CCCO1)C1CCN(S(=O)(=O)c2cccc3cccnc23)CC1` (centres unmarked) was tested. Which “hERG current change (%, negative = inhibition) at 10uM” value did it give?
A: 6.1%
